{"source": "PubChem BioAssay AID504832", "about": "(National Center for Advancing Translational Sciences (NCATS), 2011)", "note": "Out of some 310,000 compounds screened, about 18,000 (5.8%) were called active. The inconclusive results got no clear call from the source; some entries with a clear call stand among them for comparison. Calls come from the whole dose curve; as a rule, active = well fitted inhibition curve with a large enough effect; inconclusive = small, poorly fitted or top-dose-only effect, or another doubt; inactive = no such curve, though single readings can be large or run the other way. No potency is given beside an inconclusive call; the fits are too rough. Potency is the fitted concentration of half-maximal effect; tags give direction and shape of the fitted curve.", "data": [{"test": "Primary qHTS for delayed death inhibitors of the malarial parasite plastid, 48 hour incubation", "conditions": "P. falciparum luciferase growth in erythrocytes; series mostly up to 28.7 µM", "how_it_was_run": "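In quantitative HTS format, infected erythrocytes bearing luciferase-reporter parasites were treated for a single generation at 37 C. Luminescence after adding detection reagent served as the growth measure.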", "values": [{"compound": "N#Cc1ccc(/C=N/N=C(N)N)cc1", "Potency": "inconclusive [inhibitor, single point]"}, {"compound": "O=C(Nc1ccc(Cl)cc1)Nc1cc([N+](=O)[O-])ccc1F", "Potency": "inconclusive [inhibitor, single point]"}, {"compound": "Cc1ccc(C)c(OCC(=O)Nc2cccc(S(=O)(=O)NC3=NCCCCC3)c2)c1", "Potency": "inconclusive [inhibitor, single point]"}, {"compound": "CCn1c(=O)c2cc(C(=O)NCCOC)sc2c2ccccc21", "Potency": "inactive"}, {"compound": "COc1ccccc1C1CCCN1Cc1nc(-c2cc3c(cc2Cl)OCO3)oc1C", "note": "(stereo not given)", "Potency": "active: 9.28 µM"}, {"compound": "Cc1nc2cc(-c3ccc(Cl)cc3)nn2c(C)c1CCC(=O)NC(C)c1ccc2c(c1)OCCO2", "note": "(stereo not given)", "Potency": "inconclusive [inhibitor, single point]"}, {"compound": "Cc1ccc(C(=O)NC(C#N)=C(Cl)Cl)cc1", "Potency": "inactive"}, {"compound": "Cc1ccc(CNC(=O)CCC2CCCN(Cc3cc4ccccc4o3)C2)o1", "note": "(stereo not given)", "Potency": "inactive"}, {"compound": "O=C1CCCCC1C(O)c1ccc(Cl)cc1", "note": "(stereo not given)", "Potency": "inactive"}, {"compound": "CC(NC(=O)CCC(=O)NCc1ccc(F)cc1)c1ccccc1", "note": "(stereo not given)", "Potency": "inactive"}, {"compound": "CCc1noc(C)c1C(=O)OC(C)C(=O)Nc1ccccc1OC", "note": "(stereo not given)", "Potency": "inconclusive [inhibitor, single point]"}, {"compound": "CN(CC(=O)Nc1ccc(Br)cc1)Cc1ccccc1", "Potency": "inactive"}, {"compound": "Cc1nn(C)c(C)c1NC(=O)CSc1nc(-c2ccccc2Cl)nc2c1cnn2-c1ccccc1", "Potency": "inconclusive [inhibitor, single point]"}, {"compound": "CCN1C(=O)CSC1=Nc1ccc(C(=O)O)cc1", "Potency": "inconclusive [inhibitor, full curve, poor fit]"}, {"compound": "Cc1ccc2[nH]c3c(=O)n(N)c(C)nc3c2c1", "Potency": "inactive"}, {"compound": "COc1ccc(C(=O)Nc2ccccc2C(=O)N2CCOCC2)cc1", "Potency": "inactive"}, {"compound": "O=C(c1cc2c(ccc3ccccc32)o1)N1CCCCC1", "Potency": "inactive"}, {"compound": "COc1cc(NS(=O)(=O)c2ccc(NC(=S)NC(=O)/C=C/c3ccco3)cc2)ncn1", "Potency": "inconclusive [inhibitor, full curve, poor fit]"}, {"compound": "CC(C)C[C@H](NC(=O)c1nc[nH]c1C(=O)N(C)Cc1ccccc1)C(=O)OCc1ccccc1", "Potency": "inconclusive [inhibitor, single point]"}, {"compound": "O=C1CN=C(c2ccccc2)c2cc(Cl)ccc2N1CC1CC1", "Potency": "inconclusive [inhibitor, single point]"}, {"compound": "Cc1cc(C)c2nc(N(CCN(C)C)C(=O)c3ccc4ccccc4c3)sc2c1", "Potency": "inconclusive [inhibitor, partial curve, poor fit]"}, {"compound": "Cc1cc(C)cc(N(CC(=O)NCc2ccc(F)cc2)C(=O)CCC(=O)Nc2ccccn2)c1", "Potency": "active: 13.1 µM"}, {"compound": "Cc1ccc(-c2c(C#N)c(N)n3c(nc4ccccc43)c2C#N)cc1", "Potency": "inconclusive [inhibitor, partial curve]"}, {"compound": "COc1ccc(-n2c(=O)c(CCC(=O)N(C)Cc3ccccc3C)nc3ccccc32)cc1", "Potency": "active: 10.4 µM"}, {"compound": "Clc1ccc(-c2nc3cnccn3c2Nc2ccc3c(c2)OCO3)cc1", "Potency": "inconclusive [inhibitor, partial curve, poor fit]"}, {"compound": "Nc1ccc(C(=O)N/N=C/c2cn(Cc3ccccc3)c3ccccc23)cc1", "Potency": "inactive"}, {"compound": "COc1ccc(CNC(=O)CCC(=O)N2CCN(S(=O)(=O)c3ccc(Cl)cc3)CC2)cc1", "Potency": "inactive"}, {"compound": "Cc1cc(OC(C)C(=O)NCc2cccnc2)c2c(C)cc(=O)oc2c1", "note": "(stereo not given)", "Potency": "inconclusive [inhibitor, single point]"}, {"compound": "O=c1c2c3c(sc2nc(NCCOCCO)n1Cc1ccco1)CCCCC3", "Potency": "inconclusive [inhibitor, single point]"}, {"compound": "Cc1cccc(C)c1NC(=O)COC(=O)c1c(C)nn(-c2ccccc2)c1C", "Potency": "inconclusive [inhibitor, single point]"}, {"compound": "Cc1ccc2nc3n(c2c1)CCCN3", "Potency": "inconclusive [inhibitor, single point]"}, {"compound": "COc1ccc(Cl)cc1NC(=O)CN(C)CC(=O)Nc1cccc(S(=O)(=O)N2CCCC2)c1", "Potency": "inconclusive [inhibitor, partial curve]"}, {"compound": "Cc1ccc(-c2cnc(C3CC3)o2)cc1S(=O)(=O)Nc1ccccc1", "Potency": "inconclusive [inhibitor, single point]"}, {"compound": "S=C(Nc1ccccc1Oc1ccccc1)Nc1cccc(Cl)c1Cl", "Potency": "inactive"}, {"compound": "Cc1occc1-c1nnc(SCC(=O)Nc2ccccc2)n1CCc1ccccc1", "Potency": "inconclusive [inhibitor, single point]"}, {"compound": "COc1ccc(CNC(=O)CNC(=O)c2ccc(C(C)(C)C)cc2)cc1OC", "Potency": "inconclusive [inhibitor, full curve, poor fit]"}, {"compound": "FC(F)(F)c1ccc(NC(=S)NC2CCCCC2)cc1", "Potency": "inconclusive [inhibitor, single point]"}, {"compound": "Cn1ccsc1=NC(=O)c1ccccc1F", "Potency": "inactive"}, {"compound": "COc1cc(C(=O)NC(C)c2cc(C)ccc2C)ccc1OCC(=O)N1CCOCC1", "note": "(stereo not given)", "Potency": "inconclusive [inhibitor, single point]"}, {"compound": "CC(C)NC(=O)CSc1nc2ccccc2n1CC(=O)N1CCc2ccccc21", "Potency": "inconclusive [inhibitor, partial curve, poor fit]"}, {"compound": "COc1cccc(-n2nnnc2SCC(=O)NCCc2ccc(OC)c(OC)c2)c1", "Potency": "inconclusive [inhibitor, partial curve, poor fit]"}, {"compound": "Cc1ccc(C)c(S(=O)(=O)N2CCN(C(=O)c3cncc(Br)c3)CC2)c1", "Potency": "inconclusive [inhibitor, single point]"}, {"compound": "O=C(c1ccoc1)N1CCC2(CC1)Oc1ccc(F)cc1C(=O)C21CC(c2ccccc2)=NO1", "note": "(stereo not given)", "Potency": "inconclusive [inhibitor, single point]"}, {"compound": "CC1CCN(c2cc(N3CCOCC3)c(F)cc2[N+](=O)[O-])CC1", "Potency": "inconclusive [inhibitor, single point]"}, {"compound": "CCCCc1nc2c(C)c(N)cnc2n1Cc1cccc([N+](=O)[O-])c1", "Potency": "inactive"}]}]}
